# Assay results published in PubChem BioAssay AID1347165 (National Center for Advancing Translational Sciences (NCATS), 2019).
# Out of some 220,000 compounds screened, about 5,700 (2.6%) were called active. The shares of active, inactive and inconclusive entries below differ from those in the screen. Calls follow the shape of the dose curve; as a rule, active = well fitted inhibition curve with a large enough effect; inconclusive = small, poorly fitted or top-dose-only effect; inactive = no such curve, though single readings can be large or run the other way. Potencies of inconclusive entries are doubtful fits and often do not repeat.
# Biological target: Lysine-specific demethylase 5B (Homo sapiens) (UniProt Q9UGL1)
# Assay: Primary screen for KDM5B Histone Demethylases FDH-coupled qHTS; also: nearly all actives have a fitted effect of over 70% in size
# Settings: FDH-coupled NADH fluorescence (FDH is formaldehyde dehydrogenase); series mostly up to 57.7 µM
# Procedure, shortened: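 Coupled FDH/NAD⁺ fluorescence readout. KDM5BΔAP 200 nM final; compound titration, 10 min RT preincubation; substrate mix 12.5 µM H3K4me3, 25 µM 2-OG, 50 µM Fe(II), 100 µM ascorbate, 0.25 mM NAD⁺, 0.25 U/mL FDH; ΔRFU over 30 min.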
# Potency is read from the fitted curve at half-maximal effect; tags tell the direction and shape of the fitted curve.
# Sequence of UniProt Q9UGL1 (Q9UGL1 whole entry, looked up): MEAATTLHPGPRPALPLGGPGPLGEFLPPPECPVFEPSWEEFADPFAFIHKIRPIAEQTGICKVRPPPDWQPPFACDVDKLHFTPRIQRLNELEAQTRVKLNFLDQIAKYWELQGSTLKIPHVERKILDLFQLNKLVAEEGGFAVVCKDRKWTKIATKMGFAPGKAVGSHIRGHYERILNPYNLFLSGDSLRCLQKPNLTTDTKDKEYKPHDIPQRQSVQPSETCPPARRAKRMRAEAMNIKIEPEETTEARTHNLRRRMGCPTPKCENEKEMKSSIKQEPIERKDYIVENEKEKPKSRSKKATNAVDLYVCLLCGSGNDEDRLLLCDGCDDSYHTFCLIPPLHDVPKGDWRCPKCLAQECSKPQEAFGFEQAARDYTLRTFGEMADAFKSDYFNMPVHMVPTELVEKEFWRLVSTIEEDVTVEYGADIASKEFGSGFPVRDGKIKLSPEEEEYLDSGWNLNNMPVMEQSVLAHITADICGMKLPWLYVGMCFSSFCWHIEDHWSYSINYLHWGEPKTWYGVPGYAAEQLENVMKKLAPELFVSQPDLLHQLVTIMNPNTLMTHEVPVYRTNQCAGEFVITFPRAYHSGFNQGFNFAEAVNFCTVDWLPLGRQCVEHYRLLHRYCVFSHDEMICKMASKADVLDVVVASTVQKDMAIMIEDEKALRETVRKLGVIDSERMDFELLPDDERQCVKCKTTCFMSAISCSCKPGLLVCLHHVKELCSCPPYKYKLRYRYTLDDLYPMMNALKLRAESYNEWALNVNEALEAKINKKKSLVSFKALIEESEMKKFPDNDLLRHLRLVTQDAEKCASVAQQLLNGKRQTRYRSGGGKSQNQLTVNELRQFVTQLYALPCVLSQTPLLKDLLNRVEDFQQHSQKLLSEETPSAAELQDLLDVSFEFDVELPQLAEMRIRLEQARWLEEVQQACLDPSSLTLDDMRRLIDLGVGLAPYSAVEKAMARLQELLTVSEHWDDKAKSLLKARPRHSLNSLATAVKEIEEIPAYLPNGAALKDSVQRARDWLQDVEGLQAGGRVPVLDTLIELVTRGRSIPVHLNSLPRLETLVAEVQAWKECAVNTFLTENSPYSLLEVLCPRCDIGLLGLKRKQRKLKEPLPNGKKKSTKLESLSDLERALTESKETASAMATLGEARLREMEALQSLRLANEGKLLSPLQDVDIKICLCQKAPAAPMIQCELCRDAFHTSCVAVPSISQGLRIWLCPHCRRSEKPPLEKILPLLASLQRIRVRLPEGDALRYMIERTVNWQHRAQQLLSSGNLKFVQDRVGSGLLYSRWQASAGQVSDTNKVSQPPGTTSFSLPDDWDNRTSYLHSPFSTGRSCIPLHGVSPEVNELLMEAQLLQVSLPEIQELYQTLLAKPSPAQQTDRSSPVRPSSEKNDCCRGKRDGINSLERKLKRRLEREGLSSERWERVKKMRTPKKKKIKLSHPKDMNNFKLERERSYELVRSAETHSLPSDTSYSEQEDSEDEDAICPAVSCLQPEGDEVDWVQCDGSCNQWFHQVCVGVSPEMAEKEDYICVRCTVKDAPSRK
row,Compound,Potency
1,COc1ccccc1-c1cc(C(=O)N2CCN(c3ccccc3)CC2)no1,"inconclusive: 25.1 µM [inhibitor, partial curve, poor fit]"
2,Cc1nnc(N2CCC(C(=O)NCCc3ccccc3)CC2)c2nn(-c3ccccc3)c(C)c12,"inconclusive: 35.5 µM [inhibitor, partial curve, poor fit]"
3,Cc1ncsc1CCNC(=O)c1ccc2nc(-c3ccccc3)cn2c1,active: 25.1 µM
4,O=C(O)c1ccc(-c2ccc(/C=N/O)o2)cc1,"inconclusive: 20 µM [inhibitor, partial curve, poor fit]"
5,CCc1ccc(C2=CC(c3cccc(C)c3)n3c(nc4ccccc43)N2)cc1 (stereo not drawn),"inconclusive: 28.2 µM [inhibitor, partial curve, poor fit]"
6,c1ccc(N2CCCC2)c(-c2nc(C3CCOC3)no2)c1 (stereo not drawn),"inconclusive: 22.4 µM [inhibitor, partial curve, poor fit]"
7,COc1cccc(-n2cnc3c2NC(=O)CC3c2ccsc2)c1 (stereo not drawn),"inconclusive: 28.2 µM [inhibitor, partial curve, poor fit]"
8,O=C(CNc1ccc(Br)cc1)N1CCNC1=O,inactive
9,COc1ccc(-n2nnnc2C2CCN(S(=O)(=O)c3cc(OC)ccc3OC)CC2)cc1,inactive
10,F[C@@H]1CN(Cc2ccnc3ccccc23)C[C@@H]1OCc1nc2ncccc2[nH]1,"inconclusive: 35.5 µM [inhibitor, partial curve, poor fit]"
11,N#Cc1cccnc1N1CCN(C(C(=O)O)c2c[nH]c3ccc(Br)cc23)CC1 (stereo not drawn),"inconclusive: 39.8 µM [inhibitor, single point]"
12,Cc1cnc(C(=O)Nc2ncc(Cc3ccc(C#N)cc3C(F)(F)F)s2)cn1,inactive
13,COc1ccc(-c2cc(OC(=O)c3ccccc3C)c3c(C)oc(C)c3c(=O)c2)cc1,"inconclusive: 15.8 µM [inhibitor, single point]"
14,Cc1ccc(-n2ncc3c(N4CCCCC4)ncnc32)cc1Cl,inactive
15,Cc1sc(-c2cc3c([nH]c2=O)CC(c2ccco2)CC3=O)nc1-c1ccc(Cl)cc1 (stereo not drawn),"inconclusive: 14.1 µM [inhibitor, partial curve, poor fit]"
16,Brc1cccc(CNCc2ccc(Cn3cncn3)cc2)c1,inactive
17,CC(OC(=O)c1nn(C)c(=O)c2ccccc12)C(=O)Nc1ccc(S(=O)(=O)N2CCCCC2)cc1 (stereo not drawn),inactive
18,COc1ccc(Nc2nc(-c3c(C)noc3C)cc3cc(CN(C)C)oc23)cn1,"inconclusive: 39.8 µM [inhibitor, partial curve, poor fit]"
